Test results taken from ChEMBL document CHEMBL4888484, “Replenishing the malaria drug discovery pipeline: Screening and hit evaluation of the MMV Hit Generation Library 1 (HGL1) against asexual blood stage Plasmodium falciparum ,using a nano luciferase reporter read-out” (2022).
Hit rate of the full screen: of about 150,000 compounds, about 540 (0.36%) showed an effect of 50% or more. The list shows a part of the results.

system: Plasmodium falciparum; experiment: Primary screen in NF54 nanoGlo assay, in single point, at 2uM, 72h; a lower Z score goes with more inhibition; assay type: functional, Erythrocyte; settings: timepoint 72 hour

Compared with `COCc1cccc(CNc2ncnc3onc(C)c23)c1`, `Cc1cnc(COc2cccc3c2[C@@H](O)CC(C)(C)O3)s1` is lower in “% Inhibition” value: 4% for the first, -12% for the second.

First: Cc1nccn1CCN(C)Cc1ccc(-n2ccnc2)cc1
Second: Cc1ccc(C(=O)Cn2cnc3c2c(=O)n(CCC(C)C)c(=O)n3-c2ccc(F)cc2)c(C)c1
The “% Inhibition” value of the first is higher: -3% for the first, -11% for the second.

Going from `COc1ccc(C)cc1NC(=O)c1cn(-c2ccc(-c3noc(C4CC4)n3)cc2)nc1C` to `Cc1cc(=O)[nH]c(-n2nc(C3CC3)cc2NC(=O)C(C)(C)Oc2ccc(Cl)cc2)n1`, the “% Inhibition” value rises from 4% to 84%.

Compared with `COc1cc2c(cc1OC)CN(C(=O)c1ccc(CN3C(=O)CNC3=O)cc1)CC2`, `O=C(Cc1ccc(F)cc1)N1CCc2ncncc2C1` is lower in “% Inhibition” value: -6% for the first, -9% for the second.

Compared with `Cn1c(=O)[nH]cc(C(=O)Nc2ccc3c(c2)OCCO3)c1=O`, `O=C(CCCc1c[nH]c2ccccc12)N1CCC[C@H]1c1ccc2c(c1)OCCCO2` is lower in “% Inhibition” value: 4% for the first, -2% for the second.

First: C[C@@H](C(=O)NCc1cccnc1N1CCOCC1)n1ccnc1
Second: Cc1ccoc1C(=O)N[C@@H](C)c1cccc(N2CCCC2)c1
The “% Inhibition” value of the first is lower: -5% for the first, -3% for the second.

Going from `Cc1ccccc1NC(=O)c1ncn2c1C(=O)N(C1CC1)[C@](C)(C(=O)NCc1ccc(F)cc1)C2` to `Cc1nc2n(c1C(=O)N(C)C)CCN(C(=O)Nc1ccc3cccnc3c1)C2`, the “% Inhibition” value rises from -8% to -5%.

First: Cn1cc(-c2ccc3c(c2)OCC[C@@H]2CC[C@H](O)[C@@H](CNC(=O)[C@@H]4CN(Cc5cccc(Cl)c5)CCN4C3=O)O2)cn1
Second: O=C(c1ccc(F)c(Cl)c1)N1CCCN(c2cc(-c3ccccc3)n[nH]2)CC1
The “% Inhibition” value of the first is higher: 10% for the first, -17% for the second.

First: CC1CN(C)CCN1C(=O)C(C)n1cncn1 (centres undefined)
Second: Cc1cc(C(=O)NCCn2c(C)cnc2C2CC2)n(C)n1
The “% Inhibition” value of the first is higher: 0% for the first, -11% for the second.

Compared with `COC[C@H]1CCCN1S(=O)(=O)NCc1nc2ccccc2o1`, `CS(=O)(=O)NC(=O)[C@@]12CCC[C@@H]1CN(Cc1ccccc1)C2` is higher in “% Inhibition” value: -15% for the first, -10% for the second.

Going from `C=CCN(C(=O)CCN1CCCCO1)C1CCCC1` to `O=C(C1CCN(Cc2cccc3cccnc23)CC1)N1CCCC1`, the “% Inhibition” value falls from 15% to -5%.

First: COc1ncccc1C(=O)N1CCC[C@]1(C)Cc1cccc(F)c1
Second: O=C(Nc1cccc(C(F)(F)F)c1)N1CCC(Oc2ncccc2Cl)CC1
The “% Inhibition” value of the first is lower: -2% for the first, 1% for the second.

First: O=C(Nc1cccc(C#Cc2ccccn2)c1)[C@H]1CCS(=O)(=O)C1
Second: Cc1ccnc(Oc2cccc(C(=O)Nc3ccccc3)c2)n1
The “% Inhibition” value of the first is higher: 5% for the first, -36% for the second.

Compared with `CN(C[C@H]1CCCOC1)C(=O)Nc1csnc1-c1ccccc1`, `CN(Cc1cc(C2CC2)on1)C(=O)CCCOc1ccccc1` is lower in “% Inhibition” value: -10% for the first, -15% for the second.

Compared with `COc1cccc(CN2CCn3nnc(-c4nc(-c5ccccc5)no4)c3C2=O)c1`, `O=C(c1ccccn1)N1C[C@H](c2nc(-c3ccccc3)no2)C2(CCOCC2)C1` is higher in “% Inhibition” value: -5% for the first, 8% for the second.

Compared with `CCC(C)C(=O)Nc1nc2c(s1)C(=O)CC(C(=O)N1CCN(c3cccc(Cl)c3)CC1)C2` (centres undefined), `CCc1nc(C)ccc1OCC(=O)N1CCC2(CC1)C(=O)NCCN2C` is higher in “% Inhibition” value: -7% for the first, 3% for the second.

First: CC(=O)C(Nc1cc(C(F)(F)F)ccc1Cl)C(C)=O
Second: C[C@@H](Oc1ccc(Cl)cc1Cl)C(=O)N[C@H]1CCC[C@H]1C(=O)O
The “% Inhibition” value of the first is lower: -10% for the first, -1% for the second.

Going from `Cc1cc(C(=O)NC2CCC(F)C2)c(C)o1` (centres undefined) to `COC1CCC(N[C@H]2CCCN(C(=O)OC(C)(C)C)C2)CC1` (some centres undefined), the “% Inhibition” value falls from -8% to -15%.

First: COCCN(CC(N)=O)Cc1csc2c(F)cccc12
Second: C#Cc1cccc(N(C)C(=O)CS(=O)(=O)N(CC)CC)c1
The “% Inhibition” value of the first is higher: 6% for the first, -8% for the second.

Going from `Cc1ccc(S(=O)(=O)c2ccc(C(=O)NCc3ccc4c(c3)OCO4)s2)cc1` to `CC[C@]1(N2CCN(S(=O)(=O)c3ccc4c(c3)CCCC4)CC2)CCN(C(=O)NC)C1`, the “% Inhibition” value rises from -19% to -12%.

First: CC(=O)N1N=C(c2ccccc2)OC12CCCC2
Second: Cc1ncc(Cc2ccccc2)c(C2CCNCC2)n1
The “% Inhibition” value of the first is higher: -4% for the first, -12% for the second.

Going from `COCc1cccc(CNc2ncnc3onc(C)c23)c1` to `Cc1cnc(COc2cccc3c2[C@@H](O)CC(C)(C)O3)s1`, the Z score rises from -0.44 to 1.91.

Compared with `Cc1nccn1CCN(C)Cc1ccc(-n2ccnc2)cc1`, `Cc1ccc(C(=O)Cn2cnc3c2c(=O)n(CCC(C)C)c(=O)n3-c2ccc(F)cc2)c(C)c1` is higher in Z score: 0.51 for the first, 1.7 for the second.

First: COc1ccc(C)cc1NC(=O)c1cn(-c2ccc(-c3noc(C4CC4)n3)cc2)nc1C
Second: Cc1cc(=O)[nH]c(-n2nc(C3CC3)cc2NC(=O)C(C)(C)Oc2ccc(Cl)cc2)n1
The Z score of the first is higher: -0.8 for the first, -15.44 for the second.

First: COc1cc2c(cc1OC)CN(C(=O)c1ccc(CN3C(=O)CNC3=O)cc1)CC2
Second: O=C(Cc1ccc(F)cc1)N1CCc2ncncc2C1
The Z score of the first is lower: 0.66 for the first, 1.63 for the second.

Compared with `Cn1c(=O)[nH]cc(C(=O)Nc2ccc3c(c2)OCCO3)c1=O`, `O=C(CCCc1c[nH]c2ccccc12)N1CCC[C@H]1c1ccc2c(c1)OCCCO2` is higher in Z score: -0.54 for the first, 0.3 for the second.

Going from `C[C@@H](C(=O)NCc1cccnc1N1CCOCC1)n1ccnc1` to `Cc1ccoc1C(=O)N[C@@H](C)c1cccc(N2CCCC2)c1`, the Z score falls from 0.77 to 0.38.

Going from `Cc1ccccc1NC(=O)c1ncn2c1C(=O)N(C1CC1)[C@](C)(C(=O)NCc1ccc(F)cc1)C2` to `Cc1nc2n(c1C(=O)N(C)C)CCN(C(=O)Nc1ccc3cccnc3c1)C2`, the Z score falls from 0.83 to 0.6.

Compared with `Cn1cc(-c2ccc3c(c2)OCC[C@@H]2CC[C@H](O)[C@@H](CNC(=O)[C@@H]4CN(Cc5cccc(Cl)c5)CCN4C3=O)O2)cn1`, `O=C(c1ccc(F)c(Cl)c1)N1CCCN(c2cc(-c3ccccc3)n[nH]2)CC1` is higher in Z score: -1.88 for the first, 1.72 for the second.

First: CC1CN(C)CCN1C(=O)C(C)n1cncn1 (centres undefined)
Second: Cc1cc(C(=O)NCCn2c(C)cnc2C2CC2)n(C)n1
The Z score of the first is lower: 0.06 for the first, 1.42 for the second.

Going from `COC[C@H]1CCCN1S(=O)(=O)NCc1nc2ccccc2o1` to `CS(=O)(=O)NC(=O)[C@@]12CCC[C@@H]1CN(Cc1ccccc1)C2`, the Z score falls from 2.05 to 1.28.

First: C=CCN(C(=O)CCN1CCCCO1)C1CCCC1
Second: O=C(C1CCN(Cc2cccc3cccnc23)CC1)N1CCCC1
The Z score of the first is lower: -1.95 for the first, 0.69 for the second.

Compared with `COc1ncccc1C(=O)N1CCC[C@]1(C)Cc1cccc(F)c1`, `O=C(Nc1cccc(C(F)(F)F)c1)N1CCC(Oc2ncccc2Cl)CC1` is lower in Z score: 0.25 for the first, -0.22 for the second.

Going from `O=C(Nc1cccc(C#Cc2ccccn2)c1)[C@H]1CCS(=O)(=O)C1` to `Cc1ccnc(Oc2cccc(C(=O)Nc3ccccc3)c2)n1`, the Z score rises from -0.69 to 3.16.

Compared with `CN(C[C@H]1CCCOC1)C(=O)Nc1csnc1-c1ccccc1`, `CN(Cc1cc(C2CC2)on1)C(=O)CCCOc1ccccc1` is higher in Z score: 1.94 for the first, 2.64 for the second.

Compared with `COc1cccc(CN2CCn3nnc(-c4nc(-c5ccccc5)no4)c3C2=O)c1`, `O=C(c1ccccn1)N1C[C@H](c2nc(-c3ccccc3)no2)C2(CCOCC2)C1` is lower in Z score: 0.53 for the first, -1.58 for the second.

Compared with `CCC(C)C(=O)Nc1nc2c(s1)C(=O)CC(C(=O)N1CCN(c3cccc(Cl)c3)CC1)C2` (centres undefined), `CCc1nc(C)ccc1OCC(=O)N1CCC2(CC1)C(=O)NCCN2C` is lower in Z score: 1.06 for the first, -0.29 for the second.

Going from `CC(=O)C(Nc1cc(C(F)(F)F)ccc1Cl)C(C)=O` to `C[C@@H](Oc1ccc(Cl)cc1Cl)C(=O)N[C@H]1CCC[C@H]1C(=O)O`, the Z score falls from 1.32 to 0.08.

Going from `Cc1cc(C(=O)NC2CCC(F)C2)c(C)o1` (centres undefined) to `COC1CCC(N[C@H]2CCCN(C(=O)OC(C)(C)C)C2)CC1` (some centres undefined), the Z score falls from 1.62 to 1.5.

First: COCCN(CC(N)=O)Cc1csc2c(F)cccc12
Second: C#Cc1cccc(N(C)C(=O)CS(=O)(=O)N(CC)CC)c1
The Z score of the first is lower: -0.86 for the first, 0.9 for the second.

Going from `Cc1ccc(S(=O)(=O)c2ccc(C(=O)NCc3ccc4c(c3)OCO4)s2)cc1` to `CC[C@]1(N2CCN(S(=O)(=O)c3ccc4c(c3)CCCC4)CC2)CCN(C(=O)NC)C1`, the Z score falls from 1.77 to 1.2.

Going from `CC(=O)N1N=C(c2ccccc2)OC12CCCC2` to `Cc1ncc(Cc2ccccc2)c(C2CCNCC2)n1`, the Z score rises from 0.67 to 2.03.
